In all, about 390,000 compounds went through this assay and about 17,000 (4.4%) were called active. The inconclusive results got no clear call from the source; some entries with a clear call stand among them for comparison. The call rests on the fitted dose curve; in most records, active means well fitted inhibition curve with a large enough effect; inconclusive means small, poorly fitted or top-dose-only effect; inactive means no such curve, though single readings can be large or run the other way. A potency beside an inconclusive call is a rough fit, not a confirmed value.
Target: Lysine-specific demethylase 4A (Homo sapiens) (UniProt O75164)
UniProt O75164, sequence (O75164 whole entry, looked up, the tested form may be a part): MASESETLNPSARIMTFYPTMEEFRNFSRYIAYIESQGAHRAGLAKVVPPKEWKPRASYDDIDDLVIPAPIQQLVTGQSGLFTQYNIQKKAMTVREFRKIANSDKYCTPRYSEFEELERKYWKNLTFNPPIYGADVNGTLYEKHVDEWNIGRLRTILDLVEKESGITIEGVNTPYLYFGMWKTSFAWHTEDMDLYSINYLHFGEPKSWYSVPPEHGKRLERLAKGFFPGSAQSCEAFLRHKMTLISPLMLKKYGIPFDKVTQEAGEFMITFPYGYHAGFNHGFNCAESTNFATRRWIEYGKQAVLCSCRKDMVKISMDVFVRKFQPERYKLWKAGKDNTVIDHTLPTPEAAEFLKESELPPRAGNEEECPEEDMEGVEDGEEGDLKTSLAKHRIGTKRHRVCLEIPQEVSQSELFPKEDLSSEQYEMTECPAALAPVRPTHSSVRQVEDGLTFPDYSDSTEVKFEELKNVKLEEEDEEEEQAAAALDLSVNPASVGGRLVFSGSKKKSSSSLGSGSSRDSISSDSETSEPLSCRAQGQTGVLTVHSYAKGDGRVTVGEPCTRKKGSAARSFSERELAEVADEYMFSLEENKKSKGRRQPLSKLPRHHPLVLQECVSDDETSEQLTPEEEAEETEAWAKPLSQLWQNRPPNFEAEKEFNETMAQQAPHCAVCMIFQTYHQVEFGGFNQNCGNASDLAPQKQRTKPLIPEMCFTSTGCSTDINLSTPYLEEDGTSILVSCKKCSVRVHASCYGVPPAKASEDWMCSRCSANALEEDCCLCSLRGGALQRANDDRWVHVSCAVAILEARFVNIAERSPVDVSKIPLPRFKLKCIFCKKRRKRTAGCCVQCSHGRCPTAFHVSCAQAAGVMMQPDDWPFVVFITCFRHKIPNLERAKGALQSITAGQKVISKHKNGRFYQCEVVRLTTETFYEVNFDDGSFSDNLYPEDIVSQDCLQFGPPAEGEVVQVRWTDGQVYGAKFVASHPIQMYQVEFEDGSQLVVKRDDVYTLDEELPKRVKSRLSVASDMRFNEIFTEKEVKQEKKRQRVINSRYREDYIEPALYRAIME
Assay: qHTS Assay for Inhibitors of JMJD2A-Tudor Domain; further: nearly all actives have a fitted effect of over 50% in size
Conditions: AlphaScreen JMJD2A-Tudor / H3K4me3 peptide binding; activity change, negative = inhibition: at 114 µM (top of the series)
On the % scale 0 is the no-effect control and ±100 the full control effect; potency means the concentration at half of the fitted maximal effect; tags describe the fitted curve by direction and shape.

| SMILES | Potency | activity change, negative = inhibition |
| --- | --- | --- |
| O=C(CSc1nccc(=O)[nH]1)N1CCN(c2ccccc2)CC1 | inconclusive: 11.2 µM [inhibitor, partial curve] |  |
| O=C(CSc1nnnn1-c1cccc2c1CCCC2)N1CCCC1 |  | inactive: -19.8% [at 11.4 µM] |
| O=C(NCc1ccco1)c1ccc2c(c1)N(Cc1ccccc1)C(=O)c1ccccc1S2(=O)=O | inactive |  |
| O=[N+]([O-])c1cc(Br)c2nsnc2c1N1CCOCC1 | active: 39.8 µM |  |
| CC(C)(NO)/C(=N/O)c1cccs1 | active: 10 µM |  |
| COc1ccc(NC(=O)N(CCC(C)C)C(C)c2cccs2)c(OC)c1 (stereo unspecified) | inconclusive: 56.2 µM [inhibitor, partial curve] |  |
| CCCOC(=O)Nc1ccc(N2CCCCC2)cc1 | inconclusive: 56.2 µM [inhibitor, partial curve] |  |
| COc1cc(/C=C/[N+](=O)[O-])ccc1OC(=O)/C=C/c1ccc(F)cc1 | inactive |  |
| O=C1NC(=S)SC1=Cc1ccc2c(c1)OCO2 | inconclusive: 50.1 µM [inhibitor, partial curve] |  |
| CC(C)Cn1c(=O)n(C)c(=O)c2[nH]cnc21 | inconclusive: 89.1 µM [inhibitor, single point] |  |
| O=[N+]([O-])c1ccc(CNc2ccc(Cl)cc2)s1 | inconclusive: 79.4 µM [inhibitor, partial curve] |  |
| O=C(Nc1ccc2c(c1)OCO2)c1ccc(N2CCCC2)c([N+](=O)[O-])c1 | inconclusive: 44.7 µM [inhibitor, partial curve] |  |
| CC1CCCN(S(=O)(=O)c2ccc(NC(=O)c3cccc(-n4cnnn4)c3)cc2)C1 (stereo unspecified) | inconclusive: 25.1 µM [inhibitor, partial curve] |  |
| COc1ccc(N2CCN(Cc3nc4c(c(=O)[nH]c(=O)n4C)n3Cc3ccc(Cl)cc3)CC2)cc1 | inactive |  |
| O=C(O)CC(NCc1ccco1)C(=O)Nc1cccc(O)c1 (stereo unspecified) | active: 3.16 µM |  |
| Cc1cc(NS(=O)(=O)c2ccccc2)c([N+](=O)[O-])cc1C | inconclusive: 31.6 µM [inhibitor, single point] |  |
| Cc1ccc(C(=O)NC(=S)NCC2CCCO2)cc1Br (stereo unspecified) | inactive |  |
| COc1ccc(CCNC(=O)c2c([S-])n(-c3ccc(C)cc3)c3cccc[n+]23)cc1 | inconclusive: 20 µM [inhibitor, full curve, poor fit] |  |
| COCCN(CC(=O)Nc1cccc(C)c1C)C(=O)Cn1c(=O)cnc2ccccc21 | inactive |  |
| COc1cc(C2c3cc4c(cc3OC(C)(N3CCCC3)C2C)OCO4)cc(OC)c1OC (stereo unspecified) | inconclusive: 50.1 µM [inhibitor, partial curve] |  |
| CCCC(C)NC(=O)/C=C/c1cccc([N+](=O)[O-])c1 (stereo unspecified) | inactive |  |
| Cc1ccccc1N=Nc1c(C)[nH]n(-c2ccccc2)c1=O | inconclusive: 8.91 µM [inhibitor, full curve] |  |
| CCCCn1c(SCC(=O)Nc2sc3c(c2C(N)=O)CCC3)nnc1-c1ccccc1 | inconclusive: 89.1 µM [inhibitor, partial curve] |  |
| COc1cc(/C=C2\Oc3cc(O)ccc3C2=O)ccc1O | inactive |  |

| SMILES | Potency | activity change, negative = inhibition |
| --- | --- | --- |
| O=C(O)c1cc2cc(Oc3ccccc3)ccc2[nH]1 | inactive |  |
| Cc1ccc(-c2csc3ncnc(SCc4ccc(C(=O)O)cc4)c23)cc1 | inconclusive: 79.4 µM [inhibitor, partial curve] |  |
| Cc1ccc2nc(N3CCC(C(=O)N4CCN(c5cccc(C)c5C)CC4)CC3)[nH]c2c1 | inconclusive: 79.4 µM [inhibitor, partial curve] |  |
| CCCCOc1cc(NCc2ccccc2)c2ncn(C(C)C)c2c1 | active: 39.8 µM |  |
| O=C(Nc1ccccc1N1CCN(C(=O)c2ccccc2)CC1)c1ccc([N+](=O)[O-])o1 | inconclusive: 56.2 µM [inhibitor, partial curve] |  |
| O=C(CSc1ncnc2nc[nH]c12)c1ccc(Cl)cc1 | active: 17.8 µM |  |
| CCOc1ccc(CN(C)CC(=O)NCc2ccccc2Cl)cc1 | inactive |  |
| Cn1c(CNC(=O)c2ccc(F)cc2)nc2ccccc21 | inconclusive: 50.1 µM [inhibitor, partial curve] |  |
| O=c1[nH]c2cnn(-c3ccccc3)c2c(=O)n1O | active: 56.2 µM |  |
| CCc1ccc(-c2nc(CN3CCC(C(=O)NCCc4ccc(OC)c(OC)c4)CC3)c(C)o2)cc1 | inconclusive: 50.1 µM [inhibitor, partial curve] |  |
| CCOC(=O)c1c(C)[nH]c(C)c1C(=O)CSc1nnc(-c2ccncc2)n1C | inconclusive: 100 µM [inhibitor, partial curve, poor fit] |  |
| Cc1ccc(/C=C/C(=O)NCCc2ccccc2)o1 | active: 28.2 µM |  |
| O=C1C2C3C=CC(C3)C2C(=O)N1CCN1CCN(Cc2ccc([N+](=O)[O-])cc2)CC1 (stereo unspecified) | inconclusive: 28.2 µM [inhibitor, single point] |  |
| CCN1CCSc2ccc(C(=O)NCc3ccccc3F)cc21 | inconclusive: 44.7 µM [inhibitor, partial curve] |  |
| O=c1c2ccccc2c(=O)n(-c2ccccc2)n1-c1ccccc1 | inactive |  |
| CNC(=O)Nc1cc(C(C)(C)C)no1 | inconclusive: 39.8 µM [inhibitor, single point] |  |
| Cc1cccc(N2C(N)=C(C#N)C(C#N)(C#N)C2c2ccccc2)c1 (stereo unspecified) | inconclusive: 44.7 µM [inhibitor, partial curve] |  |
| CC1CCC2C(=O)N(c3ccc(NC4CCCCC4)c([N+](=O)[O-])c3)C(=O)C2C1 (stereo unspecified) | inconclusive: 39.8 µM [inhibitor, partial curve] |  |
| Cc1nnc(CN(C)c2ncnc3ccc(-c4ccc5c(c4)OCO5)cc23)o1 | inconclusive: 89.1 µM [inhibitor, single point] |  |
| COC(=O)c1[nH]c(C)c(/C(O)=C2\C(=O)C(=O)N(CCN(C)C)C2c2ccccc2OC)c1C (stereo unspecified) | active: 44.7 µM |  |
| Cc1ccccc1N/N=C/c1c(C)nc2ccccn12 | inconclusive: 56.2 µM [inhibitor, partial curve] |  |
| CCOC(=O)CSc1n[nH]c(=S)s1 | inconclusive: 6.31 µM [inhibitor, single point] |  |
| O=C(Nc1ccccc1)C1CC(=O)n2c(nc3ccccc32)N1 (stereo unspecified) | active: 8.91 µM |  |
| C=Cc1ccc(Cn2c(C(=O)O)c(CNC3CCCCC3)c3ccc(C)cc32)cc1 | inactive |  |

| SMILES | Potency | activity change, negative = inhibition |
| --- | --- | --- |
| COc1ccc(NC(=O)C2=CC(c3ccc(C)cc3)=NS(=O)(=O)N2C)cc1OC | inconclusive: 56.2 µM [inhibitor, partial curve] |  |
| Cc1ncc(CO)c(/C=N/NC(=O)c2ccoc2C)c1O | inconclusive: 79.4 µM [inhibitor, single point] |  |
| COc1ccc(-c2nnc(SCC(=O)Nc3cccc(C(F)(F)F)c3)nc2-c2ccc(OC)cc2)cc1 | inconclusive: 25.1 µM [inhibitor, full curve, poor fit] |  |
| CC1CCc2c(sc3nc(-c4cc5cc(Br)ccc5oc4=O)[nH]c(=O)c23)C1 (stereo unspecified) | inactive |  |
| CCCOc1ccccc1-c1nc2c([nH]1)c(=O)[nH]c(=O)n2C | inconclusive: 17.8 µM [inhibitor, full curve] |  |
| O=C(NCCCN1CCOCC1)c1ccc2c(c1)N(Cc1ccc(F)cc1)CCS2 | inconclusive: 56.2 µM [inhibitor, partial curve] |  |
| COc1ccc(Br)c(C(=O)Nc2cc3c(cc2N2CCOCC2)n(C)c(=O)n3C)c1 | inactive |  |
| CCOc1cc(/C=C2\C(=O)N(c3cccc(C(F)(F)F)c3)C(=O)c3ccccc32)ccc1O | inconclusive: 39.8 µM [inhibitor, single point] |  |
| COc1ccc(S(=O)(=O)NCCN2CCOCC2)cc1Br | inactive |  |
| CC(=O)c1cccc(NC(=O)C(C)n2c(=O)cc(C)c3c(C)nn(-c4ccccc4)c32)c1 (stereo unspecified) | inactive |  |
| Cc1nn(-c2ccccc2)c2c1C(c1ccc(F)cc1)C(C#N)=C(N)O2 (stereo unspecified) | inconclusive: 44.7 µM [inhibitor, single point] |  |
| COc1ccc2oc(C(=O)NCC(Cc3ccccc3)N(C)C)c(C)c2c1 (stereo unspecified) | inconclusive: 79.4 µM [inhibitor, partial curve] |  |
| O=C(CSc1nc(C2CC2)n(-c2ccccc2)n1)NCc1ccco1 | inactive |  |
| COC(=O)c1c(NC(=O)c2cc3ccccc3c(=O)o2)sc2c1CCCC2 | inactive |  |
| Cc1cccc(C)c1OCC(=O)Nc1ncn[nH]1 | inconclusive: 22.4 µM [inhibitor, partial curve] |  |
| Oc1c(N=NC(=S)Nc2ccccc2F)c2ccccc2n1Cc1cccc(Cl)c1 | inconclusive: 39.8 µM [inhibitor, partial curve] |  |
| O=P(c1ccccc1)(c1ccccc1)c1cnc2ccccn12 | inconclusive: 70.8 µM [inhibitor, partial curve] |  |
| CN(CCCNC(=O)c1cc2c(Cl)nc3ccccc3c2s1)Cc1ccccc1 | inconclusive: 56.2 µM [inhibitor, partial curve] |  |
| CCOC(=O)c1c(C)[nH]c(C)c1C(=O)COC(=O)[C@@H]1CCCN1S(=O)(=O)c1ccc(Cl)cc1 | inconclusive: 35.5 µM [inhibitor, partial curve] |  |
| Cc1ccc2c(c1)C(=C(C#N)C#N)C(=O)N2CCN1CCCCC1 | inconclusive: 50.1 µM [inhibitor, partial curve] |  |
| CN(Cc1cccnc1)Cc1cn[nH]c1-c1ccc(-c2ccccc2)cc1 | inconclusive: 56.2 µM [inhibitor, partial curve] |  |
| COc1ccc(NC2=Nc3cccc4cccc2c34)cc1OC | inconclusive: 39.8 µM [inhibitor, partial curve] |  |
| c1ccc(-c2ccccc2OCCCN2CCOCC2)cc1 | active: 7.94 µM |  |

Reference: PubChem BioAssay AID504339 (National Center for Advancing Translational Sciences (NCATS), 2011)
